Results published in paper PMC4336329 (PLoS ONE, 2015).
Screen size: about 310,000 compounds; about 14,000 (4.5%) showed an effect of 50% or more. The effect is printed as a negative number. The list shows a part of the results.

Target: human ether-à-go-go-related gene (hERG) potassium channel (human, UniProt Q12809)
Experiment: primary screen, population patch clamp on CHO cells stably expressing hERG
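Further: peak tail current of the secondary pulse compared with the same well before compound.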

human ether-à-go-go-related gene (hERG) potassium channel, sequence (Q12809 whole entry, looked up): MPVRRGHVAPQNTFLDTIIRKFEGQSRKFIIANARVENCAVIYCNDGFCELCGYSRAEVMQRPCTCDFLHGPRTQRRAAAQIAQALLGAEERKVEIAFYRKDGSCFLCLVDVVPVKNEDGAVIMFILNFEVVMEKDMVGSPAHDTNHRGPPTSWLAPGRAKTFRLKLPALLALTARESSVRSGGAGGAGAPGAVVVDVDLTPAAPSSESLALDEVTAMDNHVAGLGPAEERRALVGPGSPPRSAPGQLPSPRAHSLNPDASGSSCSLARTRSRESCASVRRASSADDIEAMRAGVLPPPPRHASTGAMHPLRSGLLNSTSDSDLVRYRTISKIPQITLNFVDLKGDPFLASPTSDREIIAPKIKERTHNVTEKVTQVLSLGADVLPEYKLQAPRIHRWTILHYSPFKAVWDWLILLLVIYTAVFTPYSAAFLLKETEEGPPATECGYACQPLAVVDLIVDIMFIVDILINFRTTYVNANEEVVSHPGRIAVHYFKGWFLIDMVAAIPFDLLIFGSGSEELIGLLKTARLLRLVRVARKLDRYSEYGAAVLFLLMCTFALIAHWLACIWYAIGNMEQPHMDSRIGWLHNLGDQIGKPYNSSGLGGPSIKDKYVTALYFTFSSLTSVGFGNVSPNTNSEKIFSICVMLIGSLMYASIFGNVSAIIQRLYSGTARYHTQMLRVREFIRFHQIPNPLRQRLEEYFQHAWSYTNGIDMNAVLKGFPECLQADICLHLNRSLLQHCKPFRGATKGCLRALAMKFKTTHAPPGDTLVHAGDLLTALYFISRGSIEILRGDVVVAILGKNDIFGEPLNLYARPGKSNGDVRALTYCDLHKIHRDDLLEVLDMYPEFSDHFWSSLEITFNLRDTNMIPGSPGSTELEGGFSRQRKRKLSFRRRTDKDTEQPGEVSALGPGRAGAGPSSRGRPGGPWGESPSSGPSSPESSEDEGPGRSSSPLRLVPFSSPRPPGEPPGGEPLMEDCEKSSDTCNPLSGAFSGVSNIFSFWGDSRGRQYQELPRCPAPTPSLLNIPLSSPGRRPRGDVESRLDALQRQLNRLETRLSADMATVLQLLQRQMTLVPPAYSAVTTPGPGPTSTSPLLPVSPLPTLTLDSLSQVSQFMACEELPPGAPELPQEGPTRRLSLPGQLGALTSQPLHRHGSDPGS

SMILES | hERG current change (%, negative = inhibition) at 10uM [%]
Cc1cccc(CCNC(=O)c2cccc3c2C(=O)N(C2CCCCC2)C3)c1 | -28
CC(C)CN(CC(C)C)C(=O)CN1c2cccc3cccc(c23)S1(=O)=O | 18.1
Cc1ccc2c(c1)Cc1nc3ccccc3nc1-2 | -11.3
Oc1ccccc1N=Cc1sc2ccccc2c1Cl | 2.23
O=C(C1=C[C@@H](c2csc3ccccc23)C[C@@H](OCc2ccc(CO)cc2)O1)N1CCN(Cc2ccccc2)CC1 | -35.3
Cc1csc(CNC(=O)CC2C(=O)NCCN2Cc2ccc(F)cc2Cl)n1 (stereo not drawn) | -6.47
COCCCNc1ncnc2ccc(C)cc12 | -6.06
COc1ccc(Nc2oc(-c3ccc(Cl)cc3)nc2C#N)cc1 | 9.76
Cc1cc(NC(=O)CSc2nc(N)c(NC(=O)c3ccco3)c(=O)[nH]2)no1 | 19.2
COc1ccc(C)cc1NC(=O)c1sc2ncn(CC(=O)N3CCCCC3)c(=O)c2c1C | 9.03
COc1cccc(OC(C)c2ccnc3nc(/N=C/N(C)C)nn23)c1 (stereo not drawn) | 11.6
Cc1onc(-c2ccccc2)c1C(=O)N(CC(C)C)c1c(N)n(CC(C)C)c(=O)[nH]c1=O | -3.18
Cc1noc(C)c1COC(=O)C1(c2cccc(F)c2)CCCC1 | -1.86
Cc1ccc2c(c1)c1c(n2CC(O)CN2C(=O)CNC2=O)C(=O)CCC1 (stereo not drawn) | -24.3
CCC(C)c1ccc(OCCn2ccnc2)cc1.O=C(O)C(=O)O (stereo not drawn) | -9.93
O=C(CCc1c[nH]c2ccccc12)NCCc1ccc2c(c1)OCCO2 | 13.6
Cc1ccccc1C(=O)N[C@H](C(=O)Nc1ccc(Cl)c(Cl)c1)C(C)C | 15.8
O=c1oc(-c2ccco2)nc2sc3c(c12)CCCCC3 | 11.9
COCCNC(=S)Nc1ccccn1 | 15.3
COc1ccc(C(CCN2CCCC2)c2c(OC)cc(OC)c3c(-c4ccccc4)cc(=O)oc23)cc1 (stereo not drawn) | -52.7
COc1ccc(C(=O)C2CCN(C(=S)NCCc3ccc(OC)c(OC)c3)CC2)cc1 | -7.6
CC(NCc1ccc(S(N)(=O)=O)cc1)C(=O)N1c2ccccc2CC1C.O=C(O)C(=O)O (stereo not drawn) | -3.54
CCCn1c(O)c(N=NC(=O)CNC(=O)/C=C/c2ccc(OC)cc2)c2ccccc21 | -26.1
CCOc1ccc(C(C)=O)cc1Cn1ccsc1=N.Cl | 12.3
C=CCC(=O)NC(C)c1cnn(-c2ccccc2C)c1C (stereo not drawn) | 5.38
COc1ccc(CNC(=O)C2CSCCS2)cc1 (stereo not drawn) | 12.4
CCCCCCCCCCC[N+](C)(C)CC/C=C1/c2ccccc2Sc2ccc(Cl)cc21.[Br-] | -32.8

SMILES | hERG current change (%, negative = inhibition) at 10uM [%]
Cc1cc(NC(=O)c2cc(-c3ccncc3)nc3c(C)cccc23)no1 | 7.44
CS(=O)(=O)N(CC(=O)N1CCCCCC1)c1cccc([N+](=O)[O-])c1 | -32.7
COC(=O)c1cc(OC)c(OC)cc1NC(=O)c1cccc(OC)c1OC | -0.352
O=C(c1cc2nc(-c3ccc(F)cc3)cc(C(F)(F)F)n2n1)N1CCCCC1c1cccnc1 (stereo not drawn) | -80.2
O=C(Nc1cccc(-c2ccc(N3CCOCC3)nn2)c1)c1ccc(Cl)cc1 | -3.12
COc1ccccc1C(=O)Nc1ccc(S(=O)(=O)Nc2cc(C)nc(C)n2)cc1 | 6.3
CC1=C(C(=O)Nc2ccccc2)C(c2cccs2)C(C#N)=C(SCC#N)N1 (stereo not drawn) | -1.93
Cc1ccc(C(OC(=O)c2ccco2)C(=O)NCc2cccs2)cc1 (stereo not drawn) | 12.1
CCOC(=O)C1=C(COC(=O)c2cc(OC)c(OC)c(OC)c2)NC(=O)NC1C (stereo not drawn) | 5.35
CCOc1cccc2sc(N(CCN(C)C)C(=O)c3ccc4ccccc4c3)nc12.Cl | -51.5
Cc1ccc(C2CC(c3cccs3)=NN2C(=O)c2ccc(Br)o2)cc1 (stereo not drawn) | 4.28
CCOC(=O)/C(C#N)=C\c1ccc(O)c(OC)c1 | 8.1
COc1ccc(NS(=O)(=O)c2cc(OCC(N)=O)c(C)cc2Cl)cc1 | 1.91
CC1=C(C(=O)Nc2ccccc2)C(c2ccc(C)o2)n2ncnc2N1 (stereo not drawn) | 11.7
Clc1ccccc1CN(Cc1ccccc1)C(c1cccs1)c1nnnn1C1CCCC1 (stereo not drawn) | 9.73
Cc1ccc2c(c1)N(CC(=O)NCCCN1CC(C)CC(C)C1)C(=O)c1cccnc1O2 (stereo not drawn) | -4.44
COC(=O)c1cc(OC)c(OC)cc1NC(=S)Nc1cccc(C(C)=O)c1 | 6.36
CCC(c1nnnn1CCOC)N1CCN(c2cccc(C(F)(F)F)c2)CC1.Cl (stereo not drawn) | -23.2
Cc1noc(C)c1COc1cccc(C(=O)OC(C)C#N)c1 (stereo not drawn) | 3.98
COc1ccc(NC(=O)c2cc(S(=O)(=O)Nc3ccc(OC)cc3)cs2)cc1 | -3.01
CCC1(C(=O)c2ccccc2)C(c2cccc([N+](=O)[O-])c2)C1(C(=O)OC)C(=O)OC (stereo not drawn) | 4.51
O=C1c2cccc3c([N+](=O)[O-])ccc(c23)C(=O)N1c1nccs1 | -2.83
O.OC[C@@H](O)[C@@H](O[C@@H]1O[C@H](CO)[C@H](O)[C@H](O)[C@H]1O)[C@H](O)[C@@H](O)CO | 18
CCOC(=O)C1CCN(S(=O)(=O)c2ccc3c(c2)CCCN3C(C)=O)CC1 | -29.8
Cc1ccc(S(=O)(=O)NC(CC(C)C)C(=O)Nc2ccncc2)cc1 (stereo not drawn) | 8.27
O=C(NC1CCN(Cc2ccc(F)cc2)CC1)c1ccccc1 | -50.2
Nc1nc(SCC(=O)NC2CCCCCC2)[nH]c(=O)c1-c1ccccc1 | 1.87
